Test results published in PMC4336329 (PLoS ONE, 2015).
The whole screen tested about 310,000 compounds, of which about 2,200 (0.71%) showed an effect of 50% or more. The effect is printed as a negative number. This is one part of the list.

molecular target: human ether-à-go-go-related gene (hERG) potassium channel (human, UniProt Q12809); experiment: primary screen, population patch clamp on CHO cells stably expressing hERG
Sequence (Q12809 whole entry, looked up): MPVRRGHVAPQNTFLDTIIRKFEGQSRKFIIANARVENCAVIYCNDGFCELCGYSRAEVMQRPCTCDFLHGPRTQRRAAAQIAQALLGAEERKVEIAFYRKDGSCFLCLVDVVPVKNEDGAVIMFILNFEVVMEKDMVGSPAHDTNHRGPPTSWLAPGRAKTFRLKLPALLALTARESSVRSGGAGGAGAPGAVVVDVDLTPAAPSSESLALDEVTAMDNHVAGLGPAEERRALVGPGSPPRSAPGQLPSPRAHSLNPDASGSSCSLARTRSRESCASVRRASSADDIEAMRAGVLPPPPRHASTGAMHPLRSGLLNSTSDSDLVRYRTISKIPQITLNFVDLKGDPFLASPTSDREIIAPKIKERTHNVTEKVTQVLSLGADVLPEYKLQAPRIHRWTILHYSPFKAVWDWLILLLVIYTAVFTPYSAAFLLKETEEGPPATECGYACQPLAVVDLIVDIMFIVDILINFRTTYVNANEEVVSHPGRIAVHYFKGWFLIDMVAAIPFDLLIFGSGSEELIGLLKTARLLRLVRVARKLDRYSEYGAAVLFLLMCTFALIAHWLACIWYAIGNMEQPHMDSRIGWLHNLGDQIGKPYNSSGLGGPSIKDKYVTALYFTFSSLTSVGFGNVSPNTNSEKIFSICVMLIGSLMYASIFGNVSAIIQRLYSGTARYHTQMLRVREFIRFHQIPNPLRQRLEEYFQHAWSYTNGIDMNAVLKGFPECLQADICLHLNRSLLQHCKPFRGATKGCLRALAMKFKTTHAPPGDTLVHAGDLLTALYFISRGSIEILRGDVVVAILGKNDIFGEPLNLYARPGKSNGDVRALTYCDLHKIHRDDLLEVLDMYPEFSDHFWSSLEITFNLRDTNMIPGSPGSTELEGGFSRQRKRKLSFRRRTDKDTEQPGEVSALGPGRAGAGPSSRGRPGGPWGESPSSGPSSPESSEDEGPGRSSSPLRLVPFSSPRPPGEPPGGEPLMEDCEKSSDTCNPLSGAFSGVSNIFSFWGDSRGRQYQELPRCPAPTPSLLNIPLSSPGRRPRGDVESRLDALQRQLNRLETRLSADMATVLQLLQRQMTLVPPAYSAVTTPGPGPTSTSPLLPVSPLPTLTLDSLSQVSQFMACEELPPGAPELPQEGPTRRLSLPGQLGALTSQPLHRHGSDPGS

First: O=[N+]([O-])c1cccc(NC(=S)N2CCN(S(=O)(=O)c3ccccc3)CC2)c1
Second: CN1c2ccccc2Oc2c(c(=O)n(C)c(=O)n2C)C1c1cccc([N+](=O)[O-])c1 (stereo not shown)
The “hERG current change (%, negative = inhibition) at 1uM” value of the first is higher: 1.52% for the first, -0.702% for the second.

Compared with `C[C@@H](NC(=O)Cn1ccc(NC(=O)OCc2ccccc2)nc1=O)c1cccc2ccccc12`, `O=C(COc1ccccc1)Nc1cccc(-c2nc3ccccc3[nH]2)c1` is lower in “hERG current change (%, negative = inhibition) at 1uM” value: 15.9% for the first, -3.65% for the second.

Going from `Cn1c(=O)c2c(ncn2CC(=O)N/N=C/C(Cl)=C/c2ccccc2)n(C)c1=O` to `CC1CCCCN1Cc1nc2c(c(=O)n(C)c(=O)n2C)n1CCc1ccccc1` (stereo not shown), the “hERG current change (%, negative = inhibition) at 1uM” value rises from 1.97% to 7.8%.

Compared with `O=C(COC(=O)c1ccc2c(c1)OCO2)Nc1ccccc1F`, `O=C(COC(=O)c1ccc[n+]([O-])c1)Nc1ccc(Cl)cc1[N+](=O)[O-]` is lower in “hERG current change (%, negative = inhibition) at 1uM” value: 9.81% for the first, 6.55% for the second.

Going from `O=C(COC(=O)CCC1CCCC1)Nc1nc2c(F)c(F)c(F)cc2s1` to `O=C(COC(=O)C1CCN(S(=O)(=O)c2cccs2)CC1)Nc1ccc(F)cc1F`, the “hERG current change (%, negative = inhibition) at 1uM” value falls from 15.4% to 5.54%.

First: Clc1ccc(CNc2nc(CN3CCOCC3)nc3scc(-c4ccccc4)c23)cc1
Second: Cn1nc(C(=O)NCCc2ccc(Cl)cc2)c2c1-c1ccccc1S(=O)(=O)C2
The “hERG current change (%, negative = inhibition) at 1uM” value of the first is lower: 6.2% for the first, 7.48% for the second.

First: N#Cc1c(Cl)cccc1N1CCC(C(N)=O)CC1
Second: COc1ccc(S(=O)(=O)N2CCC(C(=O)Oc3c(OC)cccc3OC)CC2)cc1OC
The “hERG current change (%, negative = inhibition) at 1uM” value of the first is higher: 8.16% for the first, -2.36% for the second.

First: CCc1ccc(/C(C)=N/NC(=O)C(O)c2ccccc2)s1 (stereo not shown)
Second: CCSc1c(-c2ccccc2)nc2c(C)cccc2c1C(=O)O
The “hERG current change (%, negative = inhibition) at 1uM” value of the first is higher: 12.3% for the first, 11.6% for the second.

Going from `CCCn1c(=O)c2ccccc2n2c(SCc3cc(=O)oc4ccc5ccccc5c34)nnc12` to `O=C(O)COc1ccccc1/C=N/NC(=O)CSc1nnc(SCc2cccc3ccccc23)s1`, the “hERG current change (%, negative = inhibition) at 1uM” value rises from 6.93% to 13.6%.

Going from `CCC(=O)c1ccc(OC(=O)c2cccs2)cc1` to `CN(C(=O)COC(=O)c1cccs1)c1c(N)n(Cc2ccccc2)c(=O)[nH]c1=O`, the “hERG current change (%, negative = inhibition) at 1uM” value falls from 9.7% to -2.84%.

Going from `COC(=O)CC1SC(=O)NC1=Nc1ccc(C)cc1` (stereo not shown) to `Cc1ccc(C(=O)NCCNC(=O)c2ccc(C)nc2)cc1`, the “hERG current change (%, negative = inhibition) at 1uM” value rises from 6.88% to 10.3%.

First: Cn1cccc1CC(=O)NNC(=S)Nc1ccc(Cl)cc1
Second: CCOc1ccccc1C(=O)Nc1cc(Cl)ccc1O
The “hERG current change (%, negative = inhibition) at 1uM” value of the first is higher: 11.1% for the first, -3.48% for the second.

Compared with `COc1cc2[nH]c(=O)n(-c3cccc(Cl)c3)c(=O)c2cc1OC`, `CCCn1c(-c2cc(OC)c(OC)c(OC)c2)nc2c1c(=O)[nH]c(=O)n2Cc1ccccc1` is lower in “hERG current change (%, negative = inhibition) at 1uM” value: 14.5% for the first, 5.36% for the second.

Going from `CC1=NNC(=O)C1CCC(=O)N/N=C/c1c(Cl)cccc1Cl` (stereo not shown) to `Cc1ccc(C)c(OCC(=O)N(Cc2nnc(-c3ccccc3Cl)o2)C2CC2)c1`, the “hERG current change (%, negative = inhibition) at 1uM” value falls from 20.4% to -1.88%.

Going from `O=C(Cc1c[nH]c2ccccc12)Nc1nccs1` to `CCc1cccc(NC(=O)CCc2nc(-c3cccs3)no2)c1`, the “hERG current change (%, negative = inhibition) at 1uM” value rises from 8.5% to 8.64%.

Going from `O=C(CN(C(=O)c1csnn1)c1ccccc1Cl)NC1CCCC1` to `Cc1cccc(C(=O)NCC(=O)NC2CCC(C)CC2)c1` (stereo not shown), the “hERG current change (%, negative = inhibition) at 1uM” value falls from 4.73% to 1.64%.

First: CCOC(=O)c1c(C)oc2ccc(NS(=O)(=O)c3ccc(C(=O)O)cc3)cc12
Second: COc1ccc(NS(=O)(=O)c2cccc(C(=O)OCC(=O)Nc3cc(C)on3)c2)cc1
The “hERG current change (%, negative = inhibition) at 1uM” value of the first is higher: 10.5% for the first, 0.529% for the second.

Compared with `Cc1ccc(S(=O)(=O)CCC(=O)OCC(=O)N2CC(=O)Nc3ccccc32)cc1`, `CC(C)[C@H](NC(=O)c1ccccc1)C(=O)OCC(=O)N1CCCc2ccccc21` is higher in “hERG current change (%, negative = inhibition) at 1uM” value: -11.1% for the first, 5.03% for the second.

Going from `O=C(O)c1cc(NC(=O)c2ccc3c(c2)C(=O)N(Cc2cccnc2)C3=O)cc(C(=O)O)c1` to `COc1ccc(C(=O)Nc2ccncc2)cc1[N+](=O)[O-]`, the “hERG current change (%, negative = inhibition) at 1uM” value rises from 4.4% to 18.2%.

Going from `CCCCCCCCNc1ncnc2ccccc12` to `Cc1ccc(Nc2ncnc3ccccc23)cc1.Cl`, the “hERG current change (%, negative = inhibition) at 1uM” value rises from -2.1% to 4.29%.

Going from `COc1ccc(N2CCN(C(CNC(=O)C(=O)NC3CC3)c3ccco3)CC2)cc1` (stereo not shown) to `Cc1sc(NC(=O)c2ccco2)c(CN2CCN(c3ccccc3)CC2)c1C`, the “hERG current change (%, negative = inhibition) at 1uM” value rises from 12.4% to 13%.

First: COc1ccc(C(=O)CN2C3=NCCCN3c3ccccc32)cc1OC
Second: COc1cccc(C(=O)Nc2c3c(nn2-c2cccc(C)c2C)CS(=O)(=O)C3)c1OC
The “hERG current change (%, negative = inhibition) at 1uM” value of the first is lower: -6.85% for the first, -3.59% for the second.

Compared with `CCOc1ccc(NC(=O)COc2nsnc2N2CCCCC2)cc1`, `OC(COc1ccccc1)CN1CCCCCC1` (stereo not shown) is lower in “hERG current change (%, negative = inhibition) at 1uM” value: 9.79% for the first, 9.1% for the second.

Going from `COC(=O)c1ccc2nc(NC(=O)COC(=O)CSc3nc(C)cc(C)n3)sc2c1` to `Cn1nnnc1SCC(=O)NCC(=O)c1ccccc1`, the “hERG current change (%, negative = inhibition) at 1uM” value falls from 19.7% to 0.362%.

Compared with `CN1CCN(c2ccc(-c3ccnn3C(=O)Nc3cccc(C(F)(F)F)c3)cc2)CC1`, `O=C(c1cccc(C(F)(F)F)c1)C1CCCN(C(=O)/C=C/c2cnc[nH]2)C1` (stereo not shown) is higher in “hERG current change (%, negative = inhibition) at 1uM” value: -2.12% for the first, 1.75% for the second.

First: Cc1cc(=O)nc2c3ccccc3n(CC(=O)NCCC3=CCCCC3)n12
Second: CCCCNC(=O)CCn1c(=O)c2ccccc2n(Cc2cc(C)ccc2C)c1=O
The “hERG current change (%, negative = inhibition) at 1uM” value of the first is lower: -0.581% for the first, 4.35% for the second.

Compared with `CCC(CO)N=C1CC(C)(C)CC(=O)/C1=C(/O)CCCN1C(=O)c2ccccc2C1=O` (stereo not shown), `COc1ccccc1NC(=O)C12CCC(C)(C(=O)C1)C2(C)C` (stereo not shown) is higher in “hERG current change (%, negative = inhibition) at 1uM” value: 7.66% for the first, 11.2% for the second.

Going from `CC(C)Oc1ccc(C2NC(=O)c3ccccc3O2)cc1` (stereo not shown) to `CCOc1ccc(N(C(C)C(=O)NCc2ccco2)S(C)(=O)=O)cc1` (stereo not shown), the “hERG current change (%, negative = inhibition) at 1uM” value falls from 21.7% to 7.69%.

First: O=C(O)c1cccn2c(=O)c3ccccc3nc12
Second: O=C(Cn1cnc2ccccc2c1=O)N(Cc1ccco1)c1ccc(O)cc1
The “hERG current change (%, negative = inhibition) at 1uM” value of the first is higher: 14% for the first, 5.6% for the second.

Going from `Cc1cc(C)cc(NC(=S)Nc2ccccn2)c1` to `CSc1ccccc1NC(=O)CN(c1cc(C)cc(C)c1)S(C)(=O)=O`, the “hERG current change (%, negative = inhibition) at 1uM” value rises from -1.9% to 3.07%.

Compared with `CS(=O)(=O)N(CC(=O)NCCSCc1ccccc1Cl)c1ccccc1F`, `Cc1cccc(Nc2nc3c(S(=O)(=O)c4ccccc4)nnn3c3ccccc23)c1` is lower in “hERG current change (%, negative = inhibition) at 1uM” value: 5.3% for the first, 3.41% for the second.

Compared with `Cc1nnc(SC(C)C#N)n1-c1ccccc1` (stereo not shown), `Clc1nc(-c2ccccc2)ncc1Oc1ccccc1` is lower in “hERG current change (%, negative = inhibition) at 1uM” value: 16% for the first, 12.4% for the second.

Compared with `O=C(NCC(F)(F)F)Nc1nnc(C(F)(F)F)s1`, `O=C(NCc1ccco1)c1c(F)c(F)c(F)c(C(=O)NCc2ccco2)c1F` is higher in “hERG current change (%, negative = inhibition) at 1uM” value: -4.14% for the first, 15.3% for the second.

Compared with `CC(C)CCN1CC(O)=C(c2nc(-c3ccc(Cl)cc3)cs2)C1=N`, `COc1ccc(CCN2CC(O)=C(c3nc(C)cs3)C2=N)cc1OC` is lower in “hERG current change (%, negative = inhibition) at 1uM” value: 17.2% for the first, 9.2% for the second.

First: COc1ccc(/C=N/NC(=O)C2c3ccccc3-c3ccccc32)cc1
Second: NC(=O)Cc1ccc(Nc2nnc(-c3ccc(O)cc3)c3ccccc23)cc1
The “hERG current change (%, negative = inhibition) at 1uM” value of the first is lower: 6.1% for the first, 11.1% for the second.

First: CCN1CCN(CC(O)COC(C)C)CC1.Cl (stereo not shown)
Second: CCOc1cc(N2CCOCC2)c(OCC)cc1NC(=O)c1ccco1
The “hERG current change (%, negative = inhibition) at 1uM” value of the first is higher: 7.28% for the first, -9.54% for the second.

First: CCCCC1=CC2=C(c3ccco3)C(=O)C(C)(OC(=O)c3ccc(OC)cc3)C(=O)C2=CN1CCN1CCOCC1 (stereo not shown)
Second: CC1(C)Cc2nc3oc4c(NCCCN5CCOCC5)ncnc4c3cc2CO1
The “hERG current change (%, negative = inhibition) at 1uM” value of the first is higher: 7.1% for the first, -2.97% for the second.

Compared with `Cc1ccccc1C(=O)N1CCN(c2ccc(N3CCOCC3)nn2)CC1`, `Cc1ccc(C)c(N2CCN(C(=O)c3cn(C)c4ccc(S(=O)(=O)N(C)C)cc4c3=O)CC2)c1` is higher in “hERG current change (%, negative = inhibition) at 1uM” value: 4.58% for the first, 4.91% for the second.

`COC(=O)[C@@H](NC(=O)NC(C)CCc1ccccc1)C(C)C` (stereo partly shown) and `CC(C)C[C@H](NC(=O)c1nc[nH]c1C(=O)N1CCc2ccccc2C1)C(=O)OC(C)(C)C` are the same in “hERG current change (%, negative = inhibition) at 1uM” value: 10.6% for the first, 10.6% for the second.

First: CC1CCN(S(=O)(=O)c2ccc3c(c2)N(C)C(=O)CC(=O)N3C)CC1
Second: NS(=O)(=O)c1ccc(N2CCNCC2)cc1
The “hERG current change (%, negative = inhibition) at 1uM” value of the first is lower: 6.62% for the first, 13% for the second.

First: Brc1cccc(-c2nnc3n2CCCCC3)c1
Second: N#CC1=C2SCN(Cc3ccco3)CN2C(=O)CC1c1c(F)cccc1Cl (stereo not shown)
The “hERG current change (%, negative = inhibition) at 1uM” value of the first is higher: 16% for the first, 12.6% for the second.

First: O=C(O)C1CCN(C(=O)NC2CCCCC2)CC1
Second: COCCCC1CCN(C(=O)C2CCC(=O)N(C3CCCC3)C2)CC1 (stereo not shown)
The “hERG current change (%, negative = inhibition) at 1uM” value of the first is lower: 6.94% for the first, 14% for the second.

First: CSc1nnc(N2C(=O)C(O)=C(C(=O)c3ccco3)C2c2cccc(Cl)c2)s1 (stereo not shown)
Second: O=C1C2CCCN2C(c2ccc(F)cc2)N1c1ccc(Cl)cc1 (stereo not shown)
The “hERG current change (%, negative = inhibition) at 1uM” value of the first is higher: 6.28% for the first, 1.15% for the second.

`CCC(=O)Nc1ccc(S(=O)(=O)Nc2cc(C)on2)cc1` and `CCOC(=O)C(C)C(C)=O` (stereo not shown) are the same in “hERG current change (%, negative = inhibition) at 1uM” value: 12.1% for the first, 12.1% for the second.
